# Experimental data from paper PMC4336329 (PLoS ONE, 2015).
# Hit rate of the full screen: of about 310,000 compounds, about 2,200 (0.71%) showed an effect of 50% or more. The effect is printed as a negative number. This is one part of the list.
# Molecular target: human ether-à-go-go-related gene (hERG) potassium channel (human, UniProt Q12809)
# Assay: primary screen, population patch clamp on CHO cells stably expressing hERG
# Sequence of human ether-à-go-go-related gene (hERG) potassium channel (Q12809 whole entry, looked up): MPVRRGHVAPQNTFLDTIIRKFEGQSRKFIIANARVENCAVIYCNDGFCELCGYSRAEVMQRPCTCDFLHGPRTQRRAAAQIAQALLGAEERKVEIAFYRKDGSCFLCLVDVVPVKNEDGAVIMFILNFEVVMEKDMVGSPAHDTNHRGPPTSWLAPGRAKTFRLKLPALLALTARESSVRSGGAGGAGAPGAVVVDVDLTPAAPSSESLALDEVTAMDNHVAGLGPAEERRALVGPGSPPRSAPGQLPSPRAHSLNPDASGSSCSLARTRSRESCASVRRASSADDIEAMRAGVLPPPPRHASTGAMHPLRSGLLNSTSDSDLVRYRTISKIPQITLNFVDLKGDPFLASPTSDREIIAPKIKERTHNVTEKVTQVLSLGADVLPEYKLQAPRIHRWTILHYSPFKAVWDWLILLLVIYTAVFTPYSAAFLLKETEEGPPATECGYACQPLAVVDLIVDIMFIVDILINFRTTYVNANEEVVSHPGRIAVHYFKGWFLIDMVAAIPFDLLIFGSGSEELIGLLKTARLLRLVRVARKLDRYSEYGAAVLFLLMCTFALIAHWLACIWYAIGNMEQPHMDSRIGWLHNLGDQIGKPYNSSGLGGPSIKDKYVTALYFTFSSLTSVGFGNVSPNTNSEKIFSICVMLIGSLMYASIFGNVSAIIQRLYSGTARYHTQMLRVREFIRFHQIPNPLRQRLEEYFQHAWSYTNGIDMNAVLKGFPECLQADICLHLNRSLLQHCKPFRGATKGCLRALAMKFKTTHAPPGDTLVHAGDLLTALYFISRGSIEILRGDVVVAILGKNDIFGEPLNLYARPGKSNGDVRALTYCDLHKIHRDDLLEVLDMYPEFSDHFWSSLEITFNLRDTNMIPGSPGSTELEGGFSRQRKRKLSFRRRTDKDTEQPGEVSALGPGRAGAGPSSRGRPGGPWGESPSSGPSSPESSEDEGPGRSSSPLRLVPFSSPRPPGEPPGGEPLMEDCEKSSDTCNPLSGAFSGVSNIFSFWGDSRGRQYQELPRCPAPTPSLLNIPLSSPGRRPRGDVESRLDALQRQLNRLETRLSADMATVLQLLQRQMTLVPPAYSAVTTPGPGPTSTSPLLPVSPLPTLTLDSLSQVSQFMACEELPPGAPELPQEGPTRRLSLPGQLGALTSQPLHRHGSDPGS
row,SMILES,"hERG current change (%, negative = inhibition) at 1uM"
1,N/C(=N\N=C\c1ccc(O)cc1)c1nonc1N,11.2%
2,O=C(CN1CCC(C(=O)c2ccc3c(c2)OCCO3)CC1)Nc1ccccc1F,5.49%
3,O=C(O)CC(NCc1ccco1)C(=O)Nc1cccc(O)c1 (stereo not shown),16.9%
4,CC(C)(C)C1CCC(=NNC(=O)CN(c2ccccc2)S(C)(=O)=O)CC1 (stereo not shown),9.95%
5,CCOC(=O)N1CCc2c(sc(NC(=O)C3COc4ccccc4O3)c2C(N)=O)C1 (stereo not shown),13.6%
6,CCOC(=O)C1CCCN(Cc2nc(N)nc(Nc3ccc(C)cc3)n2)C1 (stereo not shown),-47.6%
7,CC(C)(C)NC(=O)Cn1c(Cl)nc2ccccc21,4.7%
8,O=C(NCc1cccnc1)c1ccc(COc2ccccc2Br)cc1,16.3%
9,COc1cccc(CN(C)C(=O)Cc2ccc(OC)c(S(=O)(=O)N3CCOCC3)c2)c1,-2.85%
10,CCOC(=O)Nc1ccc(S(=O)(=O)NC2CCCCC2)cc1,11%
11,CC(=O)NNC(=O)CC(=O)Nc1nc(C23CC4CC(CC(C4)C2)C3)cs1,20.9%
12,O=C(CN1CCN(c2ccccc2)CC1)Nc1nccs1,9.36%
13,Cc1ccc(F)c(CNC(=O)C2CCC(=O)N(CCN3CCOCC3)C2)c1F (stereo not shown),17.9%
14,O=C(NCCc1csc(-c2ccccc2)n1)c1cccs1,3.48%
15,O=C(Nc1nnc(SCc2ccccc2)s1)c1cc2c(s1)CCCC2,8.74%
16,CC(=O)N(C)c1ccc(NC(=O)Nc2ccccc2C)cc1,13.4%
17,CC(=O)Nc1cccc(Oc2ncnc3scc(-c4ccccc4)c23)c1,14.9%
18,Cc1ccc2c(c1)c1ncn(CCC3=CCCCC3)c(=O)c1n2C,14.7%
19,O=C(COc1cccc2c1CCN(Cc1ccc(Br)cc1)C2=O)N1CCOCC1,-14.7%
20,O=c1cc(/C=C/c2c(F)cccc2Cl)[nH]c2ccccc12,11.4%
21,COc1ccc(C(=O)/C=C/C(=O)N(Cc2ccc(F)cc2)C(C(=O)NC2CCCCC2)c2ccncc2)c(O)c1 (stereo not shown),9.43%
22,CCn1nc(C(C)C(=O)O)c2ccccc2c1=O (stereo not shown),11.5%

row,SMILES,"hERG current change (%, negative = inhibition) at 1uM"
1,Cn1cc(C=O)c2ccccc21,17.6%
2,C=CCn1c(COc2ccc(Cl)cc2)nnc1SCC(=O)c1c(N)n(C)c(=O)n(C)c1=O,10.5%
3,Cc1cc(C)n2nc(SCC(=O)N(C(C)C)C(C)C)nc2n1,14.5%
4,N#CC1=C(N)C(C#N)(C#N)C(c2ccc[nH]2)C2CCCC=C12 (stereo not shown),8.66%
5,CCN(CC(=O)Nc1ccccc1OC)C(=O)CCOc1ccc(C(C)(C)C)cc1,0.486%
6,COc1ccc(-c2oc3ncn4nc(Cc5ccccc5)nc4c3c2-c2ccc(OC)cc2)cc1,4.54%
7,Cc1cc(O)c(C(C)C)cc1N=Cc1cc([N+](=O)[O-])ccc1O,1.93%
8,N#Cc1c(-c2ccccc2)cc(C2CC2)nc1N,12%
9,CC1CCN(c2ccc(C(=O)O)cc2NS(=O)(=O)c2ccc(Br)cc2)CC1,7.03%
10,CC(=O)Nc1nc2ccc(S(=O)(=O)N3CCCCC3)cc2s1,2.04%
11,CC1(C)CC2(CC(C)(C)NC(=O)N2)NC(=O)N1,9.95%
12,CN(CCc1ccccc1)Cc1ccccc1[N+](=O)[O-],8.18%
13,COc1ccc(OCC(O)Cn2cnc(-c3ccc(Br)cc3)c2)cc1 (stereo not shown),14.7%
14,Cc1cc(NC(=O)CCSc2nc(-c3ccco3)cc(C(F)(F)F)n2)n(-c2ccccc2)n1,4.71%
15,COc1ccccc1-n1cc(-c2ccc(C)cc2)[nH]c1=S,12.6%
16,c1cc(Nc2ncnc3sccc23)cc(-c2nnc3n2CCCCC3)c1,7.25%
17,CSCCC(NC(=O)c1ccc(Cl)cc1)C(=O)OCC(C)=O (stereo not shown),20.9%
18,O=C(Nc1nnc(SCCC2OCCO2)s1)C1CC(=O)N(c2ccc(F)cc2)C1 (stereo not shown),8.16%
19,COc1ccc(NC(=O)/C(C#N)=C/c2cc(C)n(-c3ccc(N4CCOCC4)c([N+](=O)[O-])c3)c2C)cc1,4.07%
20,O=S(=O)(NCc1csc(-c2cccs2)n1)c1ccccc1,9.16%
21,O=C(CCNC(=O)c1ccccc1Cl)Nc1nc2ccc(F)cc2s1,5.63%
